Article PMC12040169 (PLOS Biology, 2025)
The list shows a part of the results.

What follows are molecules tested on T1, C. trachomatis L2/434/Bu expressing GFP (CTL2-GFP). Settings: total inclusion area; 28.5 h, 10 µM; inhibitor.
T1 construct: L2/434/Bu GFP intracellular growth in HeLa cells
Parameters: species or system HeLa; C. trachomatis total inclusion area by high-content imaging, normalised to DMSO
In short: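 High-content imaging followed the bulk GFP/resorufin measurement: fixed, Hoechst-stained cells were scored for GFP inclusions and host nuclei per well. Total inclusion area and count served as growth proxies, nuclei number as the viability proxy. MIC calculation matched the bulk assay.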

Question: How did the “% of control remaining” value turn out when `Cc1cc2c(s1)c1cnn(CC(=O)NC3CC3)c(=O)c1n2C` [CBK284246] was run?
Answer: 81.9533

Question: `Cc1cnc2[nH]c(C3CCN(C(=O)c4cnn(C)c4C)CC3)cc2c1` [CBK284684] was tested. Which “% of control remaining” value did it give?
Answer: 88.2325

Question: Which “% of control remaining” value does the source give for `COc1cc(NC(=O)CSc2nncn2C)c(OC)cc1Cl` [CBK270307] here?
Answer: 95.6124

Question: For `O=C(c1cc2c(F)cccc2[nH]1)N1CCCCC1CCN1CCCC1` (stereo not shown) [CBK281612], which “% of control remaining” value is on record?
Answer: 87.3836

Question: How did the “% of control remaining” value turn out when `CS(=O)(=O)N1CC2(CCN(Cc3ccccc3)CC2)c2ccccc21` [CBK084003] was run?
Answer: 71.9966

Question: `COc1ccc(CCN2CCCN(c3nccc(OCc4ccc(Cl)c(Cl)c4)n3)CC2)cc1OC` [CBK083965] was tested. Which “% of control remaining” value did it give?
Answer: 90.6205

Question: `O=C(Oc1ccc(/C=N/NC(=O)C2COc3ccccc3O2)cc1)c1cccnc1` (stereo not shown) [CBK262811] was tested. Which “% of control remaining” value did it give?
Answer: 97.3216

Question: How did the “% of control remaining” value turn out when `COc1ccccc1-c1ccnc(N[C@H]2CO[C@H]3[C@@H]2OC[C@@H]3NC(=O)C2CCCCC2)n1` [CBK289529] was run?
Answer: 108.366

Question: Which “% of control remaining” value does the source give for `C[C@H](c1ccccc1)n1c(=O)[nH]c2ncc(-c3cccc4ccccc34)nc21` [CBK064241] here?
Answer: 74.3643

Question: For `c1ccc(C2=Nn3c(Cn4nnc5ccccc54)nnc3SC2)cc1` [CBK268232], which “% of control remaining” value is on record?
Answer: 105.293

Question: With `OC1(c2cccnc2)CCCC2CN(Cc3cc(F)ccc3F)CC21` (stereo not shown) [CBK284513] as the molecule, how does the “% of control remaining” value read?
Answer: 78.4196

Question: For `CS(=O)(=O)c1ccc2nc(NC(=O)Cc3ccccc3)sc2c1` [CBK287339], which “% of control remaining” value is on record?
Answer: 107.038

Question: With `Oc1ccc(-n2ncc(-c3ccc(Cl)cc3)n2)cc1` [CBK112794] as the molecule, how does the “% of control remaining” value read?
Answer: 77.8871

Question: For `Cc1nc2ccccc2[nH]/c1=N/O` [CBK018103], which “% of control remaining” value is on record?
Answer: 67.023

Question: `Cc1ccc(S(=O)(=O)Nc2ccnc(-c3ccc(CN4C(=O)CSC4=O)cc3)n2)cc1` [CBK067925] was tested. Which “% of control remaining” value did it give?
Answer: 127.7

Question: With `CCc1ccc(OCC(=O)Nc2ccc3oc(-c4ccc(F)cc4Cl)nc3c2)cc1` [CBK265010] as the molecule, how does the “% of control remaining” value read?
Answer: 138.823

Question: Which “% of control remaining” value does the source give for `CCN(CC)C(=O)CN1C(=O)C2(Nc3ccccc3C(=O)N2c2ccc(F)cc2)c2ccccc21` (stereo not shown) [CBK103751] here?
Answer: 85.7755

Question: Which “% of control remaining” value does the source give for `CC(=O)NC[C@H]1CN(c2ccc(-c3nnc(C(C)O)s3)c(F)c2)C(=O)O1` (stereo partly shown) [CBK017968] here?
Answer: 0.07773

Question: For `COc1ccc(-c2noc(CSc3nnc(-c4ccncc4)n3C)n2)cc1` [CBK268245], which “% of control remaining” value is on record?
Answer: 128.916

Question: `C[C@H](c1ccccc1)n1c(=O)[nH]c2ncc(-c3ccco3)nc21` [CBK064415] was tested. Which “% of control remaining” value did it give?
Answer: 92.8671

Question: How did the “% of control remaining” value turn out when `O=C(O)CCNC(=O)c1ccc(NS(=O)(=O)c2ccc(C3CCCCC3)cc2)cc1` [CBK296991] was run?
Answer: 82.0975

Question: For `CN(C)CCP(=O)(c1ccccc1)c1ccccc1` [CBK026596], which “% of control remaining” value is on record?
Answer: 87.66

Question: For `Nc1cccc(-c2cc(Nc3cccc(OCc4ccccc4)c3)ncn2)c1` [CBK090915], which “% of control remaining” value is on record?
Answer: 103.091

Question: Which “% of control remaining” value does the source give for `Cn1nc(C(C)(C)C)cc1C(=O)N1CCC(N2C(=O)OCC2(C)C)CC1` [CBK044234] here?
Answer: 82.6309

Question: Which “% of control remaining” value does the source give for `O=C(CN(c1ccccc1)S(=O)(=O)c1ccccc1[N+](=O)[O-])Nc1ccc(C(F)(F)F)cc1` [CBK267137] here?
Answer: 70.5942

Question: `Cc1ccc(CNC(=O)Cn2cc(-c3ccc(CN4CCC(C)CC4)cc3)nn2)cc1` [CBK164706] was tested. Which “% of control remaining” value did it give?
Answer: 46.7777

Question: For `COc1cc(C2NC(=O)N(CCc3ccccc3)C(c3ccccc3)=C2C(C)=O)ccc1O` (stereo not shown) [CBK269024], which “% of control remaining” value is on record?
Answer: 88.5257

Question: How did the “% of control remaining” value turn out when `Cc1ccc(C)c(NS(=O)(=O)c2cc(C(=O)NCc3ccccn3)ccc2C)c1` [CBK269110] was run?
Answer: 87.3938

Question: How did the “% of control remaining” value turn out when `Cc1cc(Br)c(NC(=O)COc2ccc(/C=C(\C#N)C(N)=S)cc2)cc1C` [CBK269014] was run?
Answer: 92.7624

Question: For `NNC(=O)c1cc(-c2ccc(-c3ccccc3)cc2)nc2ccc(Br)cc12` [CBK261760], which “% of control remaining” value is on record?
Answer: 86.1816

Question: For `CCOc1cc(NC2CCN(C(=O)OC(C)(C)C)CC2)ncn1` [CBK306288], which “% of control remaining” value is on record?
Answer: 46.679

Question: With `CCCc1cc(C(N)=O)c(NC(=O)c2cc(-c3ccc(C)o3)nc3ccccc23)s1` [CBK267766C] as the molecule, how does the “% of control remaining” value read?
Answer: 74.0951

Question: `COc1cccc(C2C(C(=O)c3ccc(Br)cc3)=C(O)C(=O)N2CCCN2CCOCC2)c1` (stereo not shown) [CBK264862] was tested. Which “% of control remaining” value did it give?
Answer: 76.5325

Question: `COc1ccc(-c2cc(C(=O)N[C@H]3CCN(Cc4ccccc4)C3)cnc2-c2ccccc2)cn1` [CBK037605] was tested. Which “% of control remaining” value did it give?
Answer: 62.1566

Question: For `CC(=O)c1ccc(-c2cc(C(=O)Nc3ccc4c(c3)OCCO4)cnc2-c2ccc(Cl)cc2)s1` [CBK036627], which “% of control remaining” value is on record?
Answer: 79.3084

Question: `COCCn1c(=O)n(Cc2ccc(F)cc2)c2cccnc21` [CBK283886] was tested. Which “% of control remaining” value did it give?
Answer: 79.3254

Question: How did the “% of control remaining” value turn out when `COc1ccc(C(=O)N2CCN(Cc3ccccc3)CC2)c(OC)n1` [CBK200169] was run?
Answer: 106.843

Question: With `COc1cccc(/C=N/NC(=O)C(=O)NCc2ccccn2)c1` [CBK262268] as the molecule, how does the “% of control remaining” value read?
Answer: 88.7444

Question: For `COc1cccc(NC(=O)CC(CN2CCN(CCC#N)CC2)C(=O)O)c1` (stereo not shown) [CBK286801], which “% of control remaining” value is on record?
Answer: 94.6043

Question: `O=C(c1nccs1)C1CCN(C(=O)C2(c3ccccc3)CC2)CC1` [CBK284206] was tested. Which “% of control remaining” value did it give?
Answer: 58.499

Question: Which “% of control remaining” value does the source give for `CC1=CC(C)C(C(=O)O)C(C(=O)NCc2cccnc2)C1` (stereo not shown) [CBK293964] here?
Answer: 95.1339

Question: How did the “% of control remaining” value turn out when `Fc1ccc(C2C=C(c3ccc(F)cc3F)Nc3ncnn32)cc1` (stereo not shown) [CBK288095] was run?
Answer: 87.8

Question: Which “% of control remaining” value does the source give for `Cc1ccc(S(=O)(=O)NCc2ccc(-c3nn(C)cc3-c3ccncc3C)cc2)cc1` [CBK285632] here?
Answer: 93.023

Question: With `O=C(O)CCc1ccc(NS(=O)(=O)c2ccc(N3CCCC3=O)cc2)cc1` [CBK299788] as the molecule, how does the “% of control remaining” value read?
Answer: 112.711

Question: Which “% of control remaining” value does the source give for `Cc1cc(Cl)ccc1Nc1nnc(C)c(=O)[nH]1` [CBK287922] here?
Answer: 91.6149

Question: `CC(C)CN1C[C@H]2N(C)C(=O)c3ccccc3C(=O)[C@@]2(C)C1` [CBK283477] was tested. Which “% of control remaining” value did it give?
Answer: 88.9617

Question: How did the “% of control remaining” value turn out when `CCN(CC)CCN1CCN(c2cc(-c3cccc4ccccc34)ncn2)CC1` [CBK091196] was run?
Answer: 139.526

Question: Which “% of control remaining” value does the source give for `CN(C)CC(C)(C)CNC=C1C(=O)CC(C)(C)CC1=O` [CBK262046] here?
Answer: 108.352

Question: With `OC(CSc1ccccc1)CN1CCC(Nc2nccc(C(F)(F)F)n2)CC1` (stereo not shown) [CBK074648] as the molecule, how does the “% of control remaining” value read?
Answer: 89.2362
